Assay results taken from publication PMC7819943, “Rice protein-binding microarrays: a tool to detect cis-acting elements near promoter regions in rice”.
The other results are listed elsewhere or left out.

Biological target: T1, OsWOX13 (Oryza sativa, UniProt Q5QMM3 1-267)
T1 sequence: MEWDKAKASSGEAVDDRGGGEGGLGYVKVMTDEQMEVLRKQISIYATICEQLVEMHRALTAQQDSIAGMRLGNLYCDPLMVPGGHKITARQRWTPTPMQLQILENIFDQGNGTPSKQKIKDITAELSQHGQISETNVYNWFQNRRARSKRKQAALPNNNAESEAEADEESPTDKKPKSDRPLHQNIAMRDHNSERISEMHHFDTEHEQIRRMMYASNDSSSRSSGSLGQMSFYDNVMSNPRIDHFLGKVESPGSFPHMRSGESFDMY
Assay: protein-binding microarray (RPBM); PBS, 2% BSA, 51.3 ng/ul salmon testes DNA, 50 uM zinc acetate, 200 nM TF, 25 C, 1 h; high values mean tight binding
Conditions: protein: recombinant; tags: N-terminal polyhistidine and DsRed monomer fusion (pET32a); label: CyDye5-dUTP incorporated in the synthesized complementary strand; 3' TTTTT single-stranded linker to array surface; dsDNA, one strand shown
Method in brief: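 Ni–NTA purification followed expression in E. coli BL21-CodonPlus of transcription factors fused N-terminally to a polyhistidine tag and DsRed. At 200 nM in PBS with 2% BSA, salmon testes DNA and 50 µM zinc acetate, the protein was incubated for 1 h at 25 °C with a custom Agilent array that had been primer-extended with Cy5-dUTP and blocked with 2% BSA. After washing, the array was read on an Axon 4000B scanner. The binding signal is per-feature fluorescence intensity in arbitrary units.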

Sequence	binding signal
CATTGATTTTGTTTTATTATTTTGGTTGGTGGTGCCGTGTCGGAGTCACCTAGTGCAG	39100 fluorescence intensity (a.u.)
CGTCCATCATCTCCATTTTGTTCTCTGTCTCTTCCCCTTGCGGAGTCACCTAGTGCAG	3610 fluorescence intensity (a.u.)
CATCTTGTCCTGGTGGATTGATTGGAGGTGGTCTTCGTGCCGGAGTCACCTAGTGCAG	18900 fluorescence intensity (a.u.)
CACTGATTTTGATAGTTGAGGGACCCGTTGTATTTGATTTCGGAGTCACCTAGTGCAG	21500 fluorescence intensity (a.u.)
CCCAAAATTAAATTTTAAAATCTAATTTTGGTAGCGATTGCGGAGTCACCTAGTGCAG	41900 fluorescence intensity (a.u.)
TAGTGATTGATTCTCTACTGTTGCACCAATCATGATTGCGCGGAGTCACCTAGTGCAG	38000 fluorescence intensity (a.u.)
CTCCCTATCAATTTCCATCTCCCCTGTCAAACAAGATATTCGGAGTCACCTAGTGCAG	7060 fluorescence intensity (a.u.)
CACTACTTATCCAATCACAACCCTACATCACTCACTTCTACGGAGTCACCTAGTGCAG	6030 fluorescence intensity (a.u.)
CAGGTCTAATTTTGGACAGCAGACATAATTTTGTCTGTGCCGGAGTCACCTAGTGCAG	5690 fluorescence intensity (a.u.)
CTGTCCAATCACATTGCATCGCCATCACTTGAGTCCGTTTCGGAGTCACCTAGTGCAG	14200 fluorescence intensity (a.u.)
TTCTTCCTATCTTGATTACATTGAATGACCTCCTTCGGTTCGGAGTCACCTAGTGCAG	7310 fluorescence intensity (a.u.)
TGGTAATTACTCCCTTTAATTTGAAGGAACCCTATAGTTTCGGAGTCACCTAGTGCAG	27700 fluorescence intensity (a.u.)
GTTGATTAGCATATATTATTGGTTGCATGTTAGGCTTCCACGGAGTCACCTAGTGCAG	54700 fluorescence intensity (a.u.)
ACGGTAAAATCAATATTCTTGATTACACGGTGTCGTTGTCCGGAGTCACCTAGTGCAG	14600 fluorescence intensity (a.u.)
TTAGACATGATGATCTTTTATTCATGCATCTGATAATCCTCGGAGTCACCTAGTGCAG	3950 fluorescence intensity (a.u.)
TACCTAACAGAAAATTGAGTAATCTTTCTGTTGCTGGAGACGGAGTCACCTAGTGCAG	11700 fluorescence intensity (a.u.)
TGTCTAATTTGAGGAGAAGAGACGACCGCTTCTTTTGGTGCGGAGTCACCTAGTGCAG	6190 fluorescence intensity (a.u.)
GTCCAGTCAATTTGTCAAATTTTCTTCTGCTGGTCTTGATCGGAGTCACCTAGTGCAG	18700 fluorescence intensity (a.u.)
TTTAATTTACAGTTAAATTAACTTAATCTGTAAAAGGGATCGGAGTCACCTAGTGCAG	57500 fluorescence intensity (a.u.)
GTCTTGATTGCTTCAATTTTGCGTTACCTTACCATTTCTTCGGAGTCACCTAGTGCAG	41400 fluorescence intensity (a.u.)
TTTCCATATTAATTTGATAAATAGAGAAGAATCTAAACTGCGGAGTCACCTAGTGCAG	7470 fluorescence intensity (a.u.)
TGATTGTTGTGATTAACAAAGTTGTAATATCTTTTGGTTTCGGAGTCACCTAGTGCAG	8420 fluorescence intensity (a.u.)
ATGATTTTCATCCGTTAGATTTGATGAATAAAGTATGAAGCGGAGTCACCTAGTGCAG	11100 fluorescence intensity (a.u.)
GAGAAGGGGATTGAGGAGATTGGGAAGATACGCAAAACTACGGAGTCACCTAGTGCAG	6420 fluorescence intensity (a.u.)
CCCTTAAATTGTCCAAGTTCATCACGCAAACAAGATGTGGCGGAGTCACCTAGTGCAG	9820 fluorescence intensity (a.u.)
ATAAATAATAATTTATTTATTCAGCCATTGAGCTATCAGCCGGAGTCACCTAGTGCAG	23600 fluorescence intensity (a.u.)
GTAGGATTGGATGGATATAGGAGCCTGCCTTGCCTTCCTCCGGAGTCACCTAGTGCAG	6030 fluorescence intensity (a.u.)

Sequence	binding signal
AAGCAACAATTAATTTGGGACGGAGATAGTATATATGCTGCGGAGTCACCTAGTGCAG	10400 fluorescence intensity (a.u.)
AATTAGTCAGATTTAGAATAATTTGACTTTGACAAAAGTCCGGAGTCACCTAGTGCAG	7020 fluorescence intensity (a.u.)
ATGTAATTTCACCATAACTATATATTATAATAAGATAAGTCGGAGTCACCTAGTGCAG	8720 fluorescence intensity (a.u.)
AAAATTTATAAACCTTGATTAATTTCAGAGTCAAACTGAACGGAGTCACCTAGTGCAG	13400 fluorescence intensity (a.u.)
ACGAAATTGGCTCGATAAATTTGACATTGGAATATAGTGTCGGAGTCACCTAGTGCAG	22600 fluorescence intensity (a.u.)
CTGATTTACATGGTAATGATCGCATACTTGAATCATCCAACGGAGTCACCTAGTGCAG	17900 fluorescence intensity (a.u.)
ATGGTCCAATCAGGGAACAAGTGCTAGGACAAACACTGGTCGGAGTCACCTAGTGCAG	3350 fluorescence intensity (a.u.)
ACAATGATGACTAGAGTTGATGATGCATGATGGAGAGATACGGAGTCACCTAGTGCAG	6020 fluorescence intensity (a.u.)
GCACAATGATGACAACAGACAGTTTCCCACAGAAGATCCACGGAGTCACCTAGTGCAG	4550 fluorescence intensity (a.u.)
AGTTGATGGCTGATTAGAGATACATTTAAAAGAATCGAATCGGAGTCACCTAGTGCAG	20600 fluorescence intensity (a.u.)
AACATATTTCAATCTAACCACCTATCATCTTAATGACTTTCGGAGTCACCTAGTGCAG	4700 fluorescence intensity (a.u.)
GTTTTAATTGTTTTACTGATTTGCAAATGAGTCTGGGATGCGGAGTCACCTAGTGCAG	63500 fluorescence intensity (a.u.)
CCTCCTGGTAATCAGTTAGAATTAAAATCACGTGACTCTCCGGAGTCACCTAGTGCAG	5590 fluorescence intensity (a.u.)
TCAATATCAATCAATCTCCGCCAACTCCCTCGAATCGCTCCGGAGTCACCTAGTGCAG	29600 fluorescence intensity (a.u.)
ACATCGTTCCAATTTCAATCAAATTTCTAATTTTGGTATGCGGAGTCACCTAGTGCAG	13600 fluorescence intensity (a.u.)
GATGTAATTAAATTACCGGCGTTAGCGTGGCCCGATCGATCGGAGTCACCTAGTGCAG	10400 fluorescence intensity (a.u.)
CGAAGAGTTAAACTGATAACCTTAATCAAGAAATCAACGACGGAGTCACCTAGTGCAG	4900 fluorescence intensity (a.u.)
ATGATTGGAGTCAAATTGAACTTGTACTGATGTGGAGGAGCGGAGTCACCTAGTGCAG	53400 fluorescence intensity (a.u.)
TGGCCTTGATTTGCTTCCTGAATGTGCCTGCTTCCTTACACGGAGTCACCTAGTGCAG	18100 fluorescence intensity (a.u.)
ACGTTATAATTCTATCACAATATATTGAGATACGTAGCTACGGAGTCACCTAGTGCAG	4520 fluorescence intensity (a.u.)
TGTGTTAATTAATTTTAACTTTAGTTATATTCAGTGGCGACGGAGTCACCTAGTGCAG	47200 fluorescence intensity (a.u.)
TGGATAGATTAATAGGGATAAACAAAATCTCCTTACTACCCGGAGTCACCTAGTGCAG	10600 fluorescence intensity (a.u.)
TGGCTATTCATGGACTAATTAGGCTTAAAAGATTCGTCTCCGGAGTCACCTAGTGCAG	5430 fluorescence intensity (a.u.)
TGGGATCAATTACTAGTGGTTTATATTTAAGTGGGGTCATCGGAGTCACCTAGTGCAG	7490 fluorescence intensity (a.u.)
GTGATAATTAAAACCCAATCAATCATAAGTTAATACCACCCGGAGTCACCTAGTGCAG	50700 fluorescence intensity (a.u.)
ATAAATTACCTTTAAATTTGCATGTGTTAAGCGATCATATCGGAGTCACCTAGTGCAG	27500 fluorescence intensity (a.u.)
TGTTAATGAATCTAAATAGATATATATGTCTAAATTCATTCGGAGTCACCTAGTGCAG	4660 fluorescence intensity (a.u.)
